SMILES strings stand for the structures. Out of some 310,000 compounds screened, about 2,200 (0.71%) showed an effect of 50% or more. Effects have a minus sign here. Some of the results follow.

human ether-à-go-go-related gene (hERG) potassium channel, sequence (Q12809 whole entry, looked up): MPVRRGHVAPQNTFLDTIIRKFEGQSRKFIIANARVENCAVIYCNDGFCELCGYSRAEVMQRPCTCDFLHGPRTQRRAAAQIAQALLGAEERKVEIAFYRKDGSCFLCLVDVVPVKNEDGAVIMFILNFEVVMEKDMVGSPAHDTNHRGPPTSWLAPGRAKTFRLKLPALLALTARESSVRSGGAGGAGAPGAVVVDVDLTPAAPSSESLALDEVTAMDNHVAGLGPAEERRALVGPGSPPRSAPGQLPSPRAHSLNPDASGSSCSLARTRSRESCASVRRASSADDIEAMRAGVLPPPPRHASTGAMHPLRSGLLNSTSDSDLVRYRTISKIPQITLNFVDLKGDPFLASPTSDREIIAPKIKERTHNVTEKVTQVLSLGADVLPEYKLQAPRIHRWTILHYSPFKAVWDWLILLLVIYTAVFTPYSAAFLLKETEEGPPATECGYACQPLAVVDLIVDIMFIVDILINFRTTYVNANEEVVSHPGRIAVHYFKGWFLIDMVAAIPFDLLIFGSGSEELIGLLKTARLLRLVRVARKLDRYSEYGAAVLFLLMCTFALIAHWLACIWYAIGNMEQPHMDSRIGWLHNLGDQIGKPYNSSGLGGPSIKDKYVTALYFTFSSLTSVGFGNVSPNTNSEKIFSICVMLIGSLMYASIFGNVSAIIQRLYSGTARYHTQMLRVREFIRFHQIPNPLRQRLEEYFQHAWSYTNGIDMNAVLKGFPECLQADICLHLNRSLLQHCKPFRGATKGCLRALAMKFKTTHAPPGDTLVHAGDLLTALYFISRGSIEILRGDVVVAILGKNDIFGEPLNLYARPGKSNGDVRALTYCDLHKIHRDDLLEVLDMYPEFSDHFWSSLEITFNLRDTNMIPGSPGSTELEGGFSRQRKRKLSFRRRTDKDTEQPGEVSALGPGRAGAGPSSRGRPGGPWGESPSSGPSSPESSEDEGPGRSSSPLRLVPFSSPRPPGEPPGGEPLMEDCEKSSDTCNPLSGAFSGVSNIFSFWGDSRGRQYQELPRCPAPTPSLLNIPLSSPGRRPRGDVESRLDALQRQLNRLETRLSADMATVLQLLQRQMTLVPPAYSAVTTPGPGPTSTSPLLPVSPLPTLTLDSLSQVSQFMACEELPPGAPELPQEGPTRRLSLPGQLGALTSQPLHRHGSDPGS

This test has as its target human ether-à-go-go-related gene (hERG) potassium channel (human, UniProt Q12809). Put plainly: primary screen, population patch clamp on CHO cells stably expressing hERG.
`COc1ccc(CCNC(=O)CCCN2C(=O)c3ccccc3C2=O)cc1OC`: the “hERG current change (%, negative = inhibition) at 1uM” value was found to be 9.17%.

Take `Cc1cc(S(=O)(=O)N2CCCC2)ccc1OCC(=O)NC1CCCC1`: the “hERG current change (%, negative = inhibition) at 1uM” value came out at 7.01%.

Consider `COc1cc(CN2CCN(c3cc(C)ccc3C)CC2)cc([N+](=O)[O-])c1O`, for which the “hERG current change (%, negative = inhibition) at 1uM” value was determined as 10.5%.

For `Cc1cc(C)n(-c2nc(O)cc(=O)[nH]2)n1`, the “hERG current change (%, negative = inhibition) at 1uM” value is 5.82%.

For the compound `CC#CC(=O)N1CCC(CCC(=O)N(C)Cc2ccccc2)CC1`, the “hERG current change (%, negative = inhibition) at 1uM” value worked out at 6.18%.

As for `COc1ccccc1NC(=S)N1CCN(c2ncccn2)CC1`, the “hERG current change (%, negative = inhibition) at 1uM” value turned out to be 22%.

Turning to `CN(CC(=O)Nn1cnnc1)S(=O)(=O)c1cc(Cl)ccc1Cl`, the “hERG current change (%, negative = inhibition) at 1uM” value came out at 4.66%.

`Cc1nnc(SCc2cccc3ccccc23)n(N)c1=O`: the “hERG current change (%, negative = inhibition) at 1uM” value turned out to be 10.7%.

Take `CCOc1ccc(NC(=S)N2CCC(c3ccc(C)cc3)C2)cc1` (stereo not drawn): the “hERG current change (%, negative = inhibition) at 1uM” value is given as 5.24%.

As to `COC(=O)NNC(=O)COc1ccc(Br)c(C)c1`, the “hERG current change (%, negative = inhibition) at 1uM” value is recorded as -20.7%.

For `CN(C)c1ccc(C(=O)c2ccc(O)cc2O)cc1`, the “hERG current change (%, negative = inhibition) at 1uM” value is -2.15%.

Consider `O=C(NCc1ccco1)C1CC(c2ccc(F)cc2)=NO1` (stereo not drawn), for which the “hERG current change (%, negative = inhibition) at 1uM” value was 9.9%.

On to `c1ccc(-c2nnc(C3CC(c4ccncc4)=NO3)o2)cc1` (stereo not drawn), for which the “hERG current change (%, negative = inhibition) at 1uM” value is reported as 3.55%.

As for `Cc1ccc2c(c1)N(CCC(=O)N1CCC3(CC1)OCCO3)C(=O)CO2`, the “hERG current change (%, negative = inhibition) at 1uM” value is -11.7%.

For `COc1ccc(OC)c(NC(=O)CCCN2C(=S)NC(C)(C)CC2C)c1` (stereo not drawn), the “hERG current change (%, negative = inhibition) at 1uM” value was -3.08%.

As for `COc1ccc(NC(=O)CN(C)C(=O)c2cc(-c3ccc(OC)cc3)nc3ccccc23)cc1`, the “hERG current change (%, negative = inhibition) at 1uM” value was determined as 10.4%.

Take `CCOCC(=O)Nc1cc([N+](=O)[O-])ccc1C`: the “hERG current change (%, negative = inhibition) at 1uM” value amounted to 5.71%.

On to `CCN(CC(=O)Nc1ccccc1C(F)(F)F)C(=O)Cc1ccccc1`, for which the “hERG current change (%, negative = inhibition) at 1uM” value was 7.63%.

On to `CCc1cc(=O)[nH]c(SCC(=O)NCc2ccc3c(c2)OCO3)n1`, for which the “hERG current change (%, negative = inhibition) at 1uM” value turned out to be 12%.

In the case of `O=C(NCCc1ccccc1)C(=O)c1cn(CC(=O)N2CCCC2)c2ccccc12`, the “hERG current change (%, negative = inhibition) at 1uM” value came to 14.4%.

Take `Cc1nnc2n1-c1ccc(Br)cc1C(c1ccccc1Cl)=NC2`: the “hERG current change (%, negative = inhibition) at 1uM” value is given as -14.4%.

Turning to `CCn1c(SCC(=O)Nc2ccccc2C(=O)OC)nnc1-c1ccc(N)cc1`, the “hERG current change (%, negative = inhibition) at 1uM” value was -11.7%.

With `N#C/C=C/N1CCC(Cc2ccccc2)CC1`, the “hERG current change (%, negative = inhibition) at 1uM” value turned out to be 0.255%.

On to `OCCC1CN(Cc2ccc3cccc(F)c3n2)CCN1Cc1ccccc1` (stereo not drawn), for which the “hERG current change (%, negative = inhibition) at 1uM” value was -1.84%.

Consider `Cn1c(-c2ccccc2)c[n+]2c1CCCCC2.[Br-]`, for which the “hERG current change (%, negative = inhibition) at 1uM” value is given as 8.57%.

On to `Cc1ccc(S(=O)(=O)N2CCOCC2)cc1NC(=O)CSc1nc2ccccc2c(=O)n1Cc1ccccc1`, for which the “hERG current change (%, negative = inhibition) at 1uM” value worked out at 2.96%.

With `CN(CCCC(=O)N1CCCC(C(N)=O)C1)S(=O)(=O)c1ccc(F)cc1` (stereo not drawn), the “hERG current change (%, negative = inhibition) at 1uM” value was -0.555%.

In the case of `CN1Cc2c(N3CCOCC3)nc3sc(C(=O)c4ccccc4)c(N)c3c2CC1(C)C`, the “hERG current change (%, negative = inhibition) at 1uM” value was determined as 12.7%.

With `CCCCn1c(CCNC(=O)c2cccs2)nc2ccccc21`, the “hERG current change (%, negative = inhibition) at 1uM” value is -1.24%.

As to `Cc1ccc(C(=O)N2C3=C(CCCC3)C(=O)NC23CCCCC3)cc1`, the “hERG current change (%, negative = inhibition) at 1uM” value was 22.7%.

As for `CC(=O)NC1=NN(C(C)=O)C2(S1)C(=O)N(C(C)C)c1ccc(C)cc12` (stereo not drawn), the “hERG current change (%, negative = inhibition) at 1uM” value was 11.8%.

In the case of `CCCNC(=O)CSc1nc2ccc(OCC)cc2s1`, the “hERG current change (%, negative = inhibition) at 1uM” value amounted to 11.2%.

With `CCOC(=O)c1cc(-c2ccccc2)n(CC(=O)Nc2ccc(OC)cc2)c1C`, the “hERG current change (%, negative = inhibition) at 1uM” value was 7.73%.

As to `CC(=O)c1ccc(S(=O)(=O)N2CCN(C(=O)CSc3ccc(C)c(C)c3)CC2)cc1`, the “hERG current change (%, negative = inhibition) at 1uM” value was 6.06%.

For `Cc1ccsc1C(=O)C1CCCN(Cc2cnc(N)nc2)C1` (stereo not drawn), the “hERG current change (%, negative = inhibition) at 1uM” value is 4.23%.

Consider `COc1cccc(OC)c1C(=O)N1CCN(Cc2cccnc2)CC1`, for which the “hERG current change (%, negative = inhibition) at 1uM” value was found to be 17.5%.

For the compound `CCN1C(C(=O)Nc2cc(C)on2)=C(O)c2ccccc2S1(=O)=O`, the “hERG current change (%, negative = inhibition) at 1uM” value turned out to be 17.4%.

On to `Cc1ccc(CC2CC(=O)N(c3cc(Cl)ccn3)C2=O)cc1` (stereo not drawn), for which the “hERG current change (%, negative = inhibition) at 1uM” value stood at 6.44%.

For the compound `COc1ccc(-c2nc3ccccc3nc2-c2ccccc2)cc1OC`, the “hERG current change (%, negative = inhibition) at 1uM” value is recorded as 9.5%.

In the case of `C/C(=N\NC(=O)COc1cccc(Cl)c1)c1ccc2c(c1)OCCO2`, the “hERG current change (%, negative = inhibition) at 1uM” value was determined as 14.6%.

For the compound `Cc1ccc(NC(=O)CN(C)C(=O)c2cc(S(=O)(=O)N(C)C)ccc2N2CCCC2)cc1`, the “hERG current change (%, negative = inhibition) at 1uM” value is given as 17.1%.

As to `C1CCc2c(nnc3c2-c2nonc2CC3)C1`, the “hERG current change (%, negative = inhibition) at 1uM” value turned out to be 5.18%.

Consider `CCc1ccccc1NC(=O)C1CCN(S(=O)(=O)c2ccc3c(c2)N(C(C)=O)CCO3)CC1`, for which the “hERG current change (%, negative = inhibition) at 1uM” value was 13%.

On to `CCOC(=O)c1nc(C)n(-c2ccc([N+](=O)[O-])cc2)n1`, for which the “hERG current change (%, negative = inhibition) at 1uM” value is given as 10.3%.

For `O=C(OCc1cccc(Cl)c1)c1cc(S(=O)(=O)N2CCCCC2)ccc1N1CCOCC1`, the “hERG current change (%, negative = inhibition) at 1uM” value was determined as 12.9%.

As to `COc1cccc(CNc2nc(C(F)(F)F)nc3ccccc23)c1`, the “hERG current change (%, negative = inhibition) at 1uM” value worked out at 10.4%.

In the case of `CCn1c(=O)c(C(=O)CN(C)Cc2ccc(F)cc2)c(N)n(Cc2ccccc2)c1=O`, the “hERG current change (%, negative = inhibition) at 1uM” value is -33.6%.

Regarding `O=C(Cn1c(=O)c2c(ncn2C2CCCC2)n(Cc2ccccc2)c1=O)N1CCc2ccccc21`, the “hERG current change (%, negative = inhibition) at 1uM” value came to 13.1%.

Take `CCn1c(SCC(=O)Nc2ccc(C(=O)OC)cc2)nnc1-c1cccs1`: the “hERG current change (%, negative = inhibition) at 1uM” value was -12.9%.

For the compound `O=C(O)c1ccccc1-c1ccccc1C(=O)NCc1cccnc1`, the “hERG current change (%, negative = inhibition) at 1uM” value amounted to 17.6%.

Consider `O=[N+]([O-])c1cccc(CCl)c1`, for which the “hERG current change (%, negative = inhibition) at 1uM” value amounted to 2.67%.

Turning to `CN(CCOc1ccc(Br)cc1)CC(O)c1ccccc1.O=C(O)C(=O)O` (stereo not drawn), the “hERG current change (%, negative = inhibition) at 1uM” value is -20.4%.

For `Cc1cc(C(F)F)n2nc(C(=O)Nc3sc4c(c3C#N)CCC(C)C4)nc2n1` (stereo not drawn), the “hERG current change (%, negative = inhibition) at 1uM” value came out at 0.898%.

In the case of `COC(=O)c1ccccc1NC(=O)/C=N/O`, the “hERG current change (%, negative = inhibition) at 1uM” value turned out to be 8.41%.

For `N#Cc1nc(-c2ccc(OCc3ccc(Cl)cc3)cc2)oc1NCc1cccnc1`, the “hERG current change (%, negative = inhibition) at 1uM” value was found to be 16.4%.

Consider `COc1ccc(NC(=S)N2CCNC(=O)C2CC(=O)Nc2cccc(Cl)c2C)cc1` (stereo not drawn), for which the “hERG current change (%, negative = inhibition) at 1uM” value is -5.98%.

On to `O=C(CCCn1c(=S)[nH]c2cc3c(cc2c1=O)OCO3)NCc1cccc(Cl)c1`, for which the “hERG current change (%, negative = inhibition) at 1uM” value was 20%.

Values taken from article PMC4336329 (PLoS ONE, 2015).
